Measurements as given in PMC10849602.
Results are given in words; binding and its absence hold for the method and conditions named. In cells and extracts the contact can be indirect. Some binding calls cover weakened binding; strength is not graded here. Each block holds one binder with its values, some of them ahead of it.

By UniProt entry, the sequences of proteins in these tests, tags left out.
UniProt Q04888: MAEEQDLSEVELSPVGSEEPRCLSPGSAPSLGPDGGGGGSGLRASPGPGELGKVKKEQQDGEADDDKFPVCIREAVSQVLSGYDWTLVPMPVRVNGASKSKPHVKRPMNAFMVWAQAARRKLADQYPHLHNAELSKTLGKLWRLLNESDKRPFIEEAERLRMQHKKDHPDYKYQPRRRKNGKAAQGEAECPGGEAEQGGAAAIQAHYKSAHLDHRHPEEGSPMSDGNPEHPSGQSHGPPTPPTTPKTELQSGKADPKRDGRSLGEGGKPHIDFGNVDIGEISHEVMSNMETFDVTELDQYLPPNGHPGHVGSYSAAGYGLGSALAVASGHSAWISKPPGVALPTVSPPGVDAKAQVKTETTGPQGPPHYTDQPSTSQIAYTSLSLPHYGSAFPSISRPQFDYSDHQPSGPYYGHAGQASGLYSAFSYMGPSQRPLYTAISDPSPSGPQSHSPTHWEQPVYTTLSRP
UniProt P35710: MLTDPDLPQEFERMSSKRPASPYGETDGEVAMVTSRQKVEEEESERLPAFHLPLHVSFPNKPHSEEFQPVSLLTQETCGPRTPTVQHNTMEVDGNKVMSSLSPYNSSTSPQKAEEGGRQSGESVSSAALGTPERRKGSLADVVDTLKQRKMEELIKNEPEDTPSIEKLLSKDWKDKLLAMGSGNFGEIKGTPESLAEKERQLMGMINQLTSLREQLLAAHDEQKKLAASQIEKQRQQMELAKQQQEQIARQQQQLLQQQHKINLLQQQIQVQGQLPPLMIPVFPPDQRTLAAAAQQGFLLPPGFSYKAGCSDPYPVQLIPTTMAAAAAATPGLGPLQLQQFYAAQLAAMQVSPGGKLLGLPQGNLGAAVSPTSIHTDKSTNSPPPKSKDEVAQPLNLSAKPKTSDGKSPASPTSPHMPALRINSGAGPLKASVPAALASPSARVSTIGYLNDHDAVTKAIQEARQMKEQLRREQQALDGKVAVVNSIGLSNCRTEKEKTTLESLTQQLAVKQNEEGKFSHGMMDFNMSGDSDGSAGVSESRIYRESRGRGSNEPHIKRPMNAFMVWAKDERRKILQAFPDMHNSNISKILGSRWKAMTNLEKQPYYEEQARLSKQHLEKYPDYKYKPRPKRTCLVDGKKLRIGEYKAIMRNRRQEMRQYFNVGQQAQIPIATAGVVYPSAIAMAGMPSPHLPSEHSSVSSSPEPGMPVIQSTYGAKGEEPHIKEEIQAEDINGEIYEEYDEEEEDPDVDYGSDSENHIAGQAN
UniProt P40645: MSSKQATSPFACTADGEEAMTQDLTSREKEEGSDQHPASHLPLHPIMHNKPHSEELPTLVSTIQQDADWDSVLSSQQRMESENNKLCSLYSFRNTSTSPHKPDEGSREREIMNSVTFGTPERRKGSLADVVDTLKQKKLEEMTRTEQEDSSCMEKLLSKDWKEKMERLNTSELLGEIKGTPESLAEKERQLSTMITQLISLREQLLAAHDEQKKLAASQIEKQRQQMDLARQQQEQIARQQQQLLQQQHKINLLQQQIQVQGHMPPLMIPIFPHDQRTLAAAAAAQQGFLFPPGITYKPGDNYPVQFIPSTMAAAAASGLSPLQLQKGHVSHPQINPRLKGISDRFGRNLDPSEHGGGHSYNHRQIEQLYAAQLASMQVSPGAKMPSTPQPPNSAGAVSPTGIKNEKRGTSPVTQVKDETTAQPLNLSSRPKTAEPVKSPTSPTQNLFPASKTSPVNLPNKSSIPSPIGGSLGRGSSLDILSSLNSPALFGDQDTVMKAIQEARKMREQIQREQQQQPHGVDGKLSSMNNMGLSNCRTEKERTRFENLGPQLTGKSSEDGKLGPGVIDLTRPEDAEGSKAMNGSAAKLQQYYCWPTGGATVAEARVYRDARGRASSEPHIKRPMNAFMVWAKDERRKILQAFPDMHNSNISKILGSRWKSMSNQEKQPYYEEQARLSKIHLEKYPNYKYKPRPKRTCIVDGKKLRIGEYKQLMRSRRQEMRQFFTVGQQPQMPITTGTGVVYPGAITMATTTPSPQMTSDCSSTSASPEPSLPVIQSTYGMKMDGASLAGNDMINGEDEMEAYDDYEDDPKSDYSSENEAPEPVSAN

Legend:
[1] = target: T1, Ascl1, expressed in HEK293 cells (UniProt Q02067); experiment: co-IP; RNF220 coexpressed with each transcription factor in HEK293 cells; which partner was precipitated is not given
T1 sequence: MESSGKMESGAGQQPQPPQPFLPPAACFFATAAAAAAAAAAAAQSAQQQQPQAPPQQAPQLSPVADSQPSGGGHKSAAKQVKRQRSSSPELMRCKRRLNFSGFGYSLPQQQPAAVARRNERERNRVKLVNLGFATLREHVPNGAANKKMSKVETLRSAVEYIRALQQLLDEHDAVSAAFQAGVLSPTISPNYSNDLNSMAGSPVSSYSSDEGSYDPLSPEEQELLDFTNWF

[2] = target: T2, Hes5, expressed in HEK293 cells (UniProt P70120); experiment: as above
T2 sequence: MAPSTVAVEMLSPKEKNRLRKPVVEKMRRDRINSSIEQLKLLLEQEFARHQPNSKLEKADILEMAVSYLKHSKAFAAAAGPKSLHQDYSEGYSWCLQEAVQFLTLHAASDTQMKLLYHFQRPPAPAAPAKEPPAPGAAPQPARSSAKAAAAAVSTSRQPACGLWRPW

[3] = target: T3, Id2, expressed in HEK293 cells (UniProt P41136); experiment: as above
T3 sequence: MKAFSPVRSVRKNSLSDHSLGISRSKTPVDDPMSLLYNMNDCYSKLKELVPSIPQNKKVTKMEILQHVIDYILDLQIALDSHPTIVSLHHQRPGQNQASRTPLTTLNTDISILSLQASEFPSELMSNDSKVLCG

[4] = target: T4, Id4, expressed in HEK293 cells (UniProt P41139); experiment: as above
T4 sequence: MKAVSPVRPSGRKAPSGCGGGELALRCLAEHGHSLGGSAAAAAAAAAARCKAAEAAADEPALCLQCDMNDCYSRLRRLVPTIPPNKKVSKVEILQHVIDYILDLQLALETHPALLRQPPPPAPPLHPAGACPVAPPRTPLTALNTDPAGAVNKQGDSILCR

[5] = target: T5, Nkx2-2, expressed in HEK293 cells (UniProt P42586); experiment: as above
T5 sequence: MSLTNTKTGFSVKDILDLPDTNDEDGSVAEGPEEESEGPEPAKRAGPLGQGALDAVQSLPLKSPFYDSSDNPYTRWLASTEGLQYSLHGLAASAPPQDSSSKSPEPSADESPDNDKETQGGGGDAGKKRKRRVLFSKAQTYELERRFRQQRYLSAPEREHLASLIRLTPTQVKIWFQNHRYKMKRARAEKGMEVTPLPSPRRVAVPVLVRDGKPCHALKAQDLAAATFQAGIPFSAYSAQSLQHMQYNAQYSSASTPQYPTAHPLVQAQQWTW

[6] = target: T6, Olig1, expressed in HEK293 cells (mouse) (UniProt Q9JKN5); experiment: as above
T6 sequence: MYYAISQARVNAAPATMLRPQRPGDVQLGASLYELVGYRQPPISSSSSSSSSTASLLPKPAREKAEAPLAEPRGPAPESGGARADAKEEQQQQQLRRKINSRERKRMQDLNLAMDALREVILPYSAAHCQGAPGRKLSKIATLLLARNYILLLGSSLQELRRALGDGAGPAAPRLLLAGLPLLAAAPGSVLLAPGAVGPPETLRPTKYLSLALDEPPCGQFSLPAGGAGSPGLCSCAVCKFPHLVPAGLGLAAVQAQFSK

[7] = target: T7, Olig2, expressed in HEK293 cells (mouse) (UniProt Q9EQW6); experiment: as above
T7 sequence: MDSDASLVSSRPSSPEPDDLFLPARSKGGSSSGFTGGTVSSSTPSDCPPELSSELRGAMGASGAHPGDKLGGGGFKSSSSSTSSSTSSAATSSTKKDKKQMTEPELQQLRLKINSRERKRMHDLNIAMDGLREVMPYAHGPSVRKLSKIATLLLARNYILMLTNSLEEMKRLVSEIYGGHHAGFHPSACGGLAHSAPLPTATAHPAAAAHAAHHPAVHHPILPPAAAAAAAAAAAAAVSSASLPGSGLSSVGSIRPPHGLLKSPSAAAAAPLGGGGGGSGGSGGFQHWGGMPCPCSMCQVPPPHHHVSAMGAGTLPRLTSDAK

[8] = target: Sox10, expressed in HEK293 cells (UniProt Q04888); experiment: as above
[9] = target: Sox5, expressed in HEK293 cells (UniProt P35710); experiment: as above
[10] = target: Sox6, expressed in HEK293 cells (UniProt P40645); experiment: as above
[11] = target: T6, Olig1, expressed in HEK293 cells (mouse); experiment: co-IP; WT RNF220 or the mutants R363Q and R365Q with Olig1 or Olig2; cells not stated for this panel
[12] = target: T7, Olig2, expressed in HEK293 cells (mouse); experiment: as above
[13] = target: T8, RNF220 (RING finger protein 220), wild type, expressed in HEK293 cells (UniProt Q6PDX6); experiment: co-IP; reverse in vitro co-IP of RNF220 and the Olig proteins (the other partner precipitated than in a1)
T8 sequence: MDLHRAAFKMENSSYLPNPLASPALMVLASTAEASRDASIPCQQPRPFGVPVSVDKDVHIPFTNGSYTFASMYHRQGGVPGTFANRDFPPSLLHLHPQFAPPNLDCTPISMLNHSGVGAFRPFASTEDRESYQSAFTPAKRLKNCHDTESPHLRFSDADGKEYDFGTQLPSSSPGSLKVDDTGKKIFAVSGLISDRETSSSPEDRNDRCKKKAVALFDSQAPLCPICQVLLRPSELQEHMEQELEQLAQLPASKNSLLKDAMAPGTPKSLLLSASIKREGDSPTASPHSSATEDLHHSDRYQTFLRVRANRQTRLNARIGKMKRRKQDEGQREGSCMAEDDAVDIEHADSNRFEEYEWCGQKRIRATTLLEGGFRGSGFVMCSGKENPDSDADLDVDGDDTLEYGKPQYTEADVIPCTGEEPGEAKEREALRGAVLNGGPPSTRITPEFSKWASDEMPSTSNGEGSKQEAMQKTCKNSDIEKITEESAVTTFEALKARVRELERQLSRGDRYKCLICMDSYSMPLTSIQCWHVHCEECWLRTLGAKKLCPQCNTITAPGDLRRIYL

[14] = target: T9, endogenous Olig1 of mouse forebrain (mouse (endogenous in forebrain)) (UniProt Q9JKN5); experiment: co-IP; endogenous proteins in forebrain lysates of P7 mice, with the indicated antibodies, IgG as control
T9 sequence: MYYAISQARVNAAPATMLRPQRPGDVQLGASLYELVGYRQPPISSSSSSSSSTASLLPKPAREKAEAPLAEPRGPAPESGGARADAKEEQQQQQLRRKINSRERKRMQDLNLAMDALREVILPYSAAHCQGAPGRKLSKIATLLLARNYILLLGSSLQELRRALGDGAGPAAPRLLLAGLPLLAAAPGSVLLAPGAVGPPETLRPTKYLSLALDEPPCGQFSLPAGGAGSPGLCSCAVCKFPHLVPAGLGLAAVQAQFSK

[15] = target: T10, endogenous Olig2 of mouse forebrain (mouse (endogenous in forebrain)) (UniProt Q9EQW6); experiment: as above
T10 sequence: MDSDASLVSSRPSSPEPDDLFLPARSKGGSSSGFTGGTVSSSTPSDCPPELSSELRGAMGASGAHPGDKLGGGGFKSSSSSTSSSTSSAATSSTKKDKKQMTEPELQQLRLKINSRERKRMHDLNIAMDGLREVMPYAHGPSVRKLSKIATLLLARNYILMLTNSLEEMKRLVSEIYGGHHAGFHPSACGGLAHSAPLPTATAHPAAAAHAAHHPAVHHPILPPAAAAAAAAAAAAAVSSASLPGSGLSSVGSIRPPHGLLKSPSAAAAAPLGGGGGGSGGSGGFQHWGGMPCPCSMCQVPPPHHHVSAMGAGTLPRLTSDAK

B1: RNF220 (RING finger protein 220), wild type, expressed in HEK293 cells (enzyme, UniProt Q6PDX6 1-566)
chain: MDLHRAAFKMENSSYLPNPLASPALMVLASTAEASRDASIPCQQPRPFGVPVSVDKDVHIPFTNGSYTFASMYHRQGGVPGTFANRDFPPSLLHLHPQFAPPNLDCTPISMLNHSGVGAFRPFASTEDRESYQSAFTPAKRLKNCHDTESPHLRFSDADGKEYDFGTQLPSSSPGSLKVDDTGKKIFAVSGLISDRETSSSPEDRNDRCKKKAVALFDSQAPLCPICQVLLRPSELQEHMEQELEQLAQLPASKNSLLKDAMAPGTPKSLLLSASIKREGDSPTASPHSSATEDLHHSDRYQTFLRVRANRQTRLNARIGKMKRRKQDEGQREGSCMAEDDAVDIEHADSNRFEEYEWCGQKRIRATTLLEGGFRGSGFVMCSGKENPDSDADLDVDGDDTLEYGKPQYTEADVIPCTGEEPGEAKEREALRGAVLNGGPPSTRITPEFSKWASDEMPSTSNGEGSKQEAMQKTCKNSDIEKITEESAVTTFEALKARVRELERQLSRGDRYKCLICMDSYSMPLTSIQCWHVHCEECWLRTLGAKKLCPQCNTITAPGDLRRIYL
binding [1]: binds
binding [2]: no binding
binding [3]: no binding
binding [4]: no binding
binding [5]: no binding
binding [6]: binds
binding [7]: binds
binding [8]: no binding
binding [9]: no binding
binding [10]: no binding

B3: Olig1, expressed in HEK293 cells (protein, UniProt Q9JKN5 1-260)
chain: MYYAISQARVNAAPATMLRPQRPGDVQLGASLYELVGYRQPPISSSSSSSSSTASLLPKPAREKAEAPLAEPRGPAPESGGARADAKEEQQQQQLRRKINSRERKRMQDLNLAMDALREVILPYSAAHCQGAPGRKLSKIATLLLARNYILLLGSSLQELRRALGDGAGPAAPRLLLAGLPLLAAAPGSVLLAPGAVGPPETLRPTKYLSLALDEPPCGQFSLPAGGAGSPGLCSCAVCKFPHLVPAGLGLAAVQAQFSK
binding [13]: binds

B5: RNF220^R363Q, leukodystrophy-related missense mutant (enzyme, UniProt Q6PDX6 1-566)
chain: MDLHRAAFKMENSSYLPNPLASPALMVLASTAEASRDASIPCQQPRPFGVPVSVDKDVHIPFTNGSYTFASMYHRQGGVPGTFANRDFPPSLLHLHPQFAPPNLDCTPISMLNHSGVGAFRPFASTEDRESYQSAFTPAKRLKNCHDTESPHLRFSDADGKEYDFGTQLPSSSPGSLKVDDTGKKIFAVSGLISDRETSSSPEDRNDRCKKKAVALFDSQAPLCPICQVLLRPSELQEHMEQELEQLAQLPASKNSLLKDAMAPGTPKSLLLSASIKREGDSPTASPHSSATEDLHHSDRYQTFLRVRANRQTRLNARIGKMKRRKQDEGQREGSCMAEDDAVDIEHADSNRFEEYEWCGQKQIRATTLLEGGFRGSGFVMCSGKENPDSDADLDVDGDDTLEYGKPQYTEADVIPCTGEEPGEAKEREALRGAVLNGGPPSTRITPEFSKWASDEMPSTSNGEGSKQEAMQKTCKNSDIEKITEESAVTTFEALKARVRELERQLSRGDRYKCLICMDSYSMPLTSIQCWHVHCEECWLRTLGAKKLCPQCNTITAPGDLRRIYL
binding [11]: binds
binding [12]: binds

The remaining lines, values ahead:

binding [11]: binds
binding [12]: binds
B2: RNF220^R365Q, leukodystrophy-related missense mutant (enzyme, UniProt Q6PDX6 1-566)
chain: MDLHRAAFKMENSSYLPNPLASPALMVLASTAEASRDASIPCQQPRPFGVPVSVDKDVHIPFTNGSYTFASMYHRQGGVPGTFANRDFPPSLLHLHPQFAPPNLDCTPISMLNHSGVGAFRPFASTEDRESYQSAFTPAKRLKNCHDTESPHLRFSDADGKEYDFGTQLPSSSPGSLKVDDTGKKIFAVSGLISDRETSSSPEDRNDRCKKKAVALFDSQAPLCPICQVLLRPSELQEHMEQELEQLAQLPASKNSLLKDAMAPGTPKSLLLSASIKREGDSPTASPHSSATEDLHHSDRYQTFLRVRANRQTRLNARIGKMKRRKQDEGQREGSCMAEDDAVDIEHADSNRFEEYEWCGQKRIQATTLLEGGFRGSGFVMCSGKENPDSDADLDVDGDDTLEYGKPQYTEADVIPCTGEEPGEAKEREALRGAVLNGGPPSTRITPEFSKWASDEMPSTSNGEGSKQEAMQKTCKNSDIEKITEESAVTTFEALKARVRELERQLSRGDRYKCLICMDSYSMPLTSIQCWHVHCEECWLRTLGAKKLCPQCNTITAPGDLRRIYL

binding [14]: binds
binding [15]: binds
B4: endogenous RNF220 of mouse forebrain (enzyme, UniProt Q6PDX6 1-566)
chain: MDLHRAAFKMENSSYLPNPLASPALMVLASTAEASRDASIPCQQPRPFGVPVSVDKDVHIPFTNGSYTFASMYHRQGGVPGTFANRDFPPSLLHLHPQFAPPNLDCTPISMLNHSGVGAFRPFASTEDRESYQSAFTPAKRLKNCHDTESPHLRFSDADGKEYDFGTQLPSSSPGSLKVDDTGKKIFAVSGLISDRETSSSPEDRNDRCKKKAVALFDSQAPLCPICQVLLRPSELQEHMEQELEQLAQLPASKNSLLKDAMAPGTPKSLLLSASIKREGDSPTASPHSSATEDLHHSDRYQTFLRVRANRQTRLNARIGKMKRRKQDEGQREGSCMAEDDAVDIEHADSNRFEEYEWCGQKRIRATTLLEGGFRGSGFVMCSGKENPDSDADLDVDGDDTLEYGKPQYTEADVIPCTGEEPGEAKEREALRGAVLNGGPPSTRITPEFSKWASDEMPSTSNGEGSKQEAMQKTCKNSDIEKITEESAVTTFEALKARVRELERQLSRGDRYKCLICMDSYSMPLTSIQCWHVHCEECWLRTLGAKKLCPQCNTITAPGDLRRIYL
